Consider 18 compounds from patent US12227500B2, “Substituted pyrrolo[2,3-b]pyridines for suppressing toxic endoplasmic reticulum stress” (THE TRUSTEES OF COLUMBIA UNIVERSITY IN THE CITY OF NEW YORK, priority 2018, dated 2025).

Square brackets hold non-standard residues; d marks the D form. Peptide text beside a SMILES is read from it. Nle = CCCC[C@H](N)C(=O)O

The experiment deals with Hb9::GFP-hSOD1^G93A motor neurons. As to conditions: 7.5 μM CPA; best time point (24 or 48 hrs post CPA) and concentration tested.

With `Cc1[nH]c2ccc(O)cc2c1CCN` [2-metyl 5-hydroxy tryptamin], the “% rescue of CPA toxicity Cell death” value was determined as 0.7672% and the “% rescue of CPA toxicity Neurite growth” value amounted to 3.779%.

Take `O=C(O)CCC/C=C\C[C@@H]1[C@@H](/C=C/[C@H](O)C2Cc3ccccc3C2)[C@@H](F)C[C@@H]1O` [AL8810]: the “% rescue of CPA toxicity Cell death” value is 1.258% and the “% rescue of CPA toxicity Neurite growth” value is recorded as −2.055%.

For `c1cc(Nc2cc(C3CC3)[nH]n2)nc(Nc2ccc3nc[nH]c3c2)n1` [APY29], the “% rescue of CPA toxicity Cell death” value is 57.76% and the “% rescue of CPA toxicity Neurite growth” value is listed as 107%.

On to `CC(=O)OCOC(=O)CN(CC(=O)OCOC(C)=O)c1ccccc1OCCOc1ccccc1N(CC(=O)OCOC(C)=O)CC(=O)OCOC(C)=O` [BAPTA-am], for which the “% rescue of CPA toxicity Cell death” value is −22.41% and the “% rescue of CPA toxicity Neurite growth” value is −23.86%.

As to `COc1ccc(O)c(C(C)(C)C)c1` [Butylated hydroxyanisole], the “% rescue of CPA toxicity Cell death” value turned out to be 1.355% and the “% rescue of CPA toxicity Neurite growth” value is listed as −0.9415%.

For `CCCC[C@@H](C=O)NC(=O)[C@H](CC(C)C)NC(=O)[C@H](CC(C)C)NC(C)=O` [Calpain inh. l] (Ac-Leu-Leu-[Nle]-aldehyde), the “% rescue of CPA toxicity Cell death” value came to 6.328% and the “% rescue of CPA toxicity Neurite growth” value was 3.561%.

With `Cc1cc(=O)oc2c(C=O)c(O)ccc12` [Compound 4u8C], the “% rescue of CPA toxicity Cell death” value is on record as 9.304% and the “% rescue of CPA toxicity Neurite growth” value is listed as −0.004912%.

For the compound `CC[C@H]1[C@@H](O)[C@@H]2[C@H](CC[C@]3(C)[C@@H]([C@H](C)CCC(=O)O)CC[C@@H]23)[C@@]2(C)CC[C@@H](O)C[C@@H]12` [Compound 6-Et-CDCA], the “% rescue of CPA toxicity Cell death” value came to 9.986% and the “% rescue of CPA toxicity Neurite growth” value was 38.18%.

For `N[C@@H](Cc1ccc(O)c(O)c1)C(=O)O` [DOPA], the “% rescue of CPA toxicity Cell death” value worked out at 2.064% and the “% rescue of CPA toxicity Neurite growth” value is reported as 38.56%.

Take `O=C1CN(/N=C/c2ccc(-c3ccc([N+](=O)[O-])cc3)o2)C(=O)N1` [Dantro, dantrolene]: the “% rescue of CPA toxicity Cell death” value is recorded as −7.952% and the “% rescue of CPA toxicity Neurite growth” value was −9.099%.

Consider `CC1=NCC[C@@H](C(=O)O)N1` [Ectoine], for which the “% rescue of CPA toxicity Cell death” value was determined as 5.031% and the “% rescue of CPA toxicity Neurite growth” value was found to be 4.253%.

As for `CCn1c2ccccc2c2cc(Nc3ccnc(NCCCN4CCOCC4)n3)ccc21` [Ehop-016], the “% rescue of CPA toxicity Cell death” value is on record as −58.41% and the “% rescue of CPA toxicity Neurite growth” value was −44.42%.

`CCOC(=O)c1ccc(NC2CCCCC2)c(N)c1` [Ferrostatin-1]: the “% rescue of CPA toxicity Cell death” value is recorded as 2.794% and the “% rescue of CPA toxicity Neurite growth” value is reported as −2.344%.

On to `C[C@H](CCC(=O)NCC(=O)O)[C@H]1CC[C@H]2[C@@H]3[C@H](O)C[C@@H]4C[C@H](O)CC[C@]4(C)[C@H]3C[C@H](O)[C@]12C` [GCA], for which the “% rescue of CPA toxicity Cell death” value is 23.53% and the “% rescue of CPA toxicity Neurite growth” value is given as 35.88%.

`C[C@H](CCC(=O)NCC(=O)O)[C@H]1CC[C@H]2[C@@H]3[C@H](O)C[C@@H]4C[C@H](O)CC[C@]4(C)[C@H]3CC[C@]12C` [GCDCA]: the “% rescue of CPA toxicity Cell death” value stood at 2.569% and the “% rescue of CPA toxicity Neurite growth” value worked out at 4.419%.

On to `CN(C)CCCn1cc(C2=C(c3c[nH]c4ccccc34)C(=O)NC2=O)c2ccccc21` [GF109203X], for which the “% rescue of CPA toxicity Cell death” value was 27.85% and the “% rescue of CPA toxicity Neurite growth” value is recorded as 30.94%.

For the compound `C[C@H](CCC(=O)NCC(=O)O)[C@H]1CC[C@H]2[C@@H]3[C@@H](O)C[C@@H]4C[C@H](O)CC[C@]4(C)[C@H]3CC[C@]12C` [GUDCA], the “% rescue of CPA toxicity Cell death” value was 9.971% and the “% rescue of CPA toxicity Neurite growth” value was found to be 41.88%.

As to `COC(=O)CC[C@@H](C)[C@H]1CC[C@H]2[C@@H]3C[C@H](O)[C@@H]4C[C@H](O)CC[C@]4(C)[C@H]3CC[C@]12C` [HDCA-Me ester], the “% rescue of CPA toxicity Cell death” value is reported as 7.111% and the “% rescue of CPA toxicity Neurite growth” value turned out to be 18.93%.
